Source: PubChem BioAssay AID504333 (National Center for Advancing Translational Sciences (NCATS), 2011)
Hit rate of the full screen: of about 360,000 compounds, about 16,000 (4.4%) were called active. The inconclusive results got no clear call from the source; some entries with a clear call stand among them for comparison. Calls come from the whole dose curve; as a rule, active = well fitted inhibition curve with a large enough effect; inconclusive = small, poorly fitted or top-dose-only effect; inactive = no such curve, though single readings can be large or run the other way. Potencies beside an inconclusive call are fits to weak or partial responses and may not hold up.

biological target: Bromodomain adjacent to zinc finger domain protein 2B (Homo sapiens) (UniProt Q9UIF8); test: qHTS Assay for Inhibitors of BAZ2B; conditions: AlphaScreen BAZ2B-H3K14Ac peptide displacement; activity change, negative = inhibition: at 114 µM (top of the series) unless noted; note: nearly all actives have a fitted effect of over 60% in size
In short: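 Inhibition is scored as reduced AlphaScreen emission. The BAZ2B/b-H3(5-23)K14Ac complex (50 nM each) in PBS pH 7.4, 0.01% Tween-20 meets compound (up to 110 uM) for 30 min at RT before bead addition.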
% is set by controls: 0 for no effect and ±100 for the full control effect; potency is the fitted concentration of half-maximal effect; tags give direction and shape of the fitted curve.

Sequence of UniProt Q9UIF8 (Q9UIF8 whole entry, looked up, the tested form may be a part): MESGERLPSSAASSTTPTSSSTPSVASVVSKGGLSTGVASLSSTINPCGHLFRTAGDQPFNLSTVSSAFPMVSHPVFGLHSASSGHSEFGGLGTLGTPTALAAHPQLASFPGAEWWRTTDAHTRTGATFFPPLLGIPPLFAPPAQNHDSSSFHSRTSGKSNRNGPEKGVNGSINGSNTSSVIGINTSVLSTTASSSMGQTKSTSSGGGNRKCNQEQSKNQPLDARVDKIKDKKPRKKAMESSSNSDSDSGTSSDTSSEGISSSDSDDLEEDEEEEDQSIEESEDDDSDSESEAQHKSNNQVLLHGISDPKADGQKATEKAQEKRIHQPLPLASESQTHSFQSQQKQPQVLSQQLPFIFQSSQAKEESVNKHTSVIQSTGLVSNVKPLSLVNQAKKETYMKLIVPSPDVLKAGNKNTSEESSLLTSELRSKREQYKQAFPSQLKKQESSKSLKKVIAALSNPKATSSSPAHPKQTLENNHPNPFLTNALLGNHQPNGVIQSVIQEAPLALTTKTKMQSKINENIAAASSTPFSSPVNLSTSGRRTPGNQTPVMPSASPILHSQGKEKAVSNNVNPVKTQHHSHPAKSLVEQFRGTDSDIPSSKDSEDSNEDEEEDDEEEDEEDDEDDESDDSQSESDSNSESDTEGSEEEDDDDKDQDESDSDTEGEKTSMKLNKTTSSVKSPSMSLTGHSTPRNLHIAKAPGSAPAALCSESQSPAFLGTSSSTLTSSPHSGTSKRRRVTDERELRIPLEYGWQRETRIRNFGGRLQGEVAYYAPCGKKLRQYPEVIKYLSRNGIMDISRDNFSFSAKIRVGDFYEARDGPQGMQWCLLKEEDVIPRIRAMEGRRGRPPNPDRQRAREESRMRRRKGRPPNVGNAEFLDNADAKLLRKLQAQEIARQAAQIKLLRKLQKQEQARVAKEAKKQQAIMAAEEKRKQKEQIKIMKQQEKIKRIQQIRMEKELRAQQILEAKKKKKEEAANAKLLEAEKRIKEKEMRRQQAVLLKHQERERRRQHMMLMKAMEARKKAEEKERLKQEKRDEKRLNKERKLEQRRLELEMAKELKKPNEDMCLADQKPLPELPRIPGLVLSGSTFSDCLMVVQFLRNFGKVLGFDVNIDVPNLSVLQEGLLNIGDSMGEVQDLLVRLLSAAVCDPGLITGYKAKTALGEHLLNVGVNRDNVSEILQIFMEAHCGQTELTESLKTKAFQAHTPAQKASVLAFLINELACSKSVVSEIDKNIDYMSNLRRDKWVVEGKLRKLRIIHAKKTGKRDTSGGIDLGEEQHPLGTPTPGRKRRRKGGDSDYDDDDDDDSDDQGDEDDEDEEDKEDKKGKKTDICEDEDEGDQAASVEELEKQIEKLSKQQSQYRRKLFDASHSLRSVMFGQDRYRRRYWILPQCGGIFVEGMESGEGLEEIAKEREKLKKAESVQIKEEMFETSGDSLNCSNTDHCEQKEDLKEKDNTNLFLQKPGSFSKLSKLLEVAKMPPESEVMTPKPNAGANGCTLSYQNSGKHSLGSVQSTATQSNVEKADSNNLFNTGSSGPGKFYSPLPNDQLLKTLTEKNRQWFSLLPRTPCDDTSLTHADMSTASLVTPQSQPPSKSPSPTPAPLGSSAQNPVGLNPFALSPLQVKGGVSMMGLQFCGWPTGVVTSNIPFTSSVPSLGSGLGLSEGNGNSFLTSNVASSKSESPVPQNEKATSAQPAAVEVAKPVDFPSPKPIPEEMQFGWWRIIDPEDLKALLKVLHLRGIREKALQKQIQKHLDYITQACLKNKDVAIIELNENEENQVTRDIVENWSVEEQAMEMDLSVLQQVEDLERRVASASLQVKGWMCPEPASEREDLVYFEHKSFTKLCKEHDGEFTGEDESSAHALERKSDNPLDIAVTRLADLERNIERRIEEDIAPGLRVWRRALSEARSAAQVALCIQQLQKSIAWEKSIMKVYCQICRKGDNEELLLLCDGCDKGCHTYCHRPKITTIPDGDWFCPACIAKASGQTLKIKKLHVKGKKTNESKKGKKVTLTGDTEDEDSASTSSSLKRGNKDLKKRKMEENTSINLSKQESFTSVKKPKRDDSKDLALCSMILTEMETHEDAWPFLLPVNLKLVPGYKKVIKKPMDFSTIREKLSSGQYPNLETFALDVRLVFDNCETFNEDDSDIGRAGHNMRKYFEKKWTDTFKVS

Row | SMILES | Potency | activity change, negative = inhibition
1 | CCN(CC)CCOCCOc1ccccc1F | inconclusive: 7.08 µM [inhibitor, single point] | –
2 | CN1CCN(/C=N/c2sc3c(c2C#N)CCCCC3)CC1 | inconclusive: 79.4 µM [inhibitor, single point] | –
3 | CCOC(=O)c1c(-c2ccc(F)cc2)csc1NC(=O)C1CC=CCC1C(=O)O (stereo not drawn) | – | inactive: -30.5%
4 | COc1cc(/C=C2/C(=N)N3C(=NC2=O)SN=C3S(C)(=O)=O)ccc1OS(=O)(=O)c1ccc(C)cc1 | inconclusive: 56.2 µM [inhibitor, partial curve] | –
5 | Cc1ccc(-c2csc(NCCn3c(-c4ccncc4)nc4ccccc43)n2)cc1 | – | inactive: -37%
6 | COc1ccc(/C=C/C(=O)O/N=C(\N)c2cccnc2)cc1OC | inconclusive: 79.4 µM [inhibitor, single point] | –
7 | O=C(CSc1cn[nH]n1)Nc1ccccc1C(F)(F)F | – | inactive: -0.469%
8 | COc1ccc(-c2nc3ccccc3c(=O)n2CCOc2c(C)cccc2C)cc1 | – | inactive: 13.1%
9 | CCN(CC)S(=O)(=O)c1nnc(NC(=O)COc2cccc(C)c2)s1 | inconclusive: 89.1 µM [inhibitor, single point] | –
10 | Cc1cc(C(=O)COC(=O)c2ccc(NC(=O)CC#N)cc2)c(C)n1C1CC1 | – | inactive: -27.9%
11 | O=C(NCc1ccccn1)c1ccc(/C=N/O)nc1 | active: 44.7 µM | –
12 | CCOC(=O)c1c(C)[nH]c(C)c1C(=O)COC(=O)/C=C/c1ccco1 | inconclusive: 79.4 µM [inhibitor, single point] | –
13 | COc1ccc(NC(=O)N(Cc2nnc3n2CCCCC3)c2ccc(OC)c(Cl)c2)cc1 | – | inactive: 1.08%
14 | Cc1ccc(-c2nc(N)sc2-c2ccccc2)cc1C | inconclusive: 50.1 µM [inhibitor, partial curve] | –
15 | O=C(CN(CC1CCCO1)C(=O)CNS(=O)(=O)c1ccc(Cl)cc1)NCC1CCCO1 (stereo not drawn) | – | inactive: -6.5%
16 | CCN(CCO)c1ncnc2c1sc1nc(CC(C)C)c3c(c12)CC(C)(C)OC3 | – | inactive: -33.9%
17 | Cc1cccc(NC(=O)c2ccc3c(c2)C(=O)N(c2ccccc2C)C3=O)n1 | – | inactive: -28.5%
18 | COc1ccc(-n2c(-c3cnccn3)n[nH]c2=S)cc1 | inconclusive: 89.1 µM [inhibitor, single point] | –
19 | COC(=O)c1sc(N2CCN(Cc3ccccc3)CC2)nc1N | inconclusive: 50.1 µM [inhibitor, partial curve] | –
20 | CCOc1ccc(C2C(C#N)=C(N)SC(N)=C2C#N)cc1OCC | inconclusive: 89.1 µM [inhibitor, single point] | –
21 | CC(C)S(=O)(=O)c1nsc2nc(=O)c(/C=C3\C=Nc4ccccc43)c(N)n12 | inconclusive: 79.4 µM [inhibitor, partial curve] | –
22 | CN(C)CCCN1C(=O)c2cccc3c([N+](=O)[O-])ccc(c23)C1=O | inconclusive: 79.4 µM [inhibitor, single point] | –
23 | N/C(=N\OC(=O)c1ccc(Cl)cc1[N+](=O)[O-])c1cccnc1 | inconclusive: 79.4 µM [inhibitor, partial curve] | –
24 | CSCc1ccc(C(=O)NCCSc2ccc(Br)cc2)cc1 | – | inactive: -1.86%

Row | SMILES | Potency | activity change, negative = inhibition
25 | Cc1ccc(S(=O)(=O)Nc2ccc(NC(=O)CN3CCCCC3)c(Cl)c2)cc1 | inconclusive: 100 µM [inhibitor, single point] | –
26 | CCOc1ccccc1CNC(=O)CCCc1cn(C)c2ccccc12 | inconclusive: 20 µM [inhibitor, partial curve] | –
27 | O=C(COC(=O)COc1ccc(Cl)cc1Cl)NC1CCCC1 | – | inactive: -2.24%
28 | CC(=O)OCCN1C(=O)c2cccnc2C1=O | inconclusive: 89.1 µM [inhibitor, single point] | –
29 | Nc1nonc1-n1nnc(C(=O)N/N=C/c2ccoc2)c1CSc1ccc(Cl)cc1 | inconclusive: 44.7 µM [inhibitor, partial curve] | –
30 | Cc1ccc2c(c1)c1c3n2CCN(C(=O)CN2CCN(C)CC2)C3CCC1 (stereo not drawn) | inconclusive: 31.6 µM [inhibitor, partial curve] | –
31 | COc1ccc(-c2c(C)nn3c(-c4ccccc4)cc(-c4ccccc4)nc23)cc1OC | inconclusive: 2.82 µM [inhibitor, full curve, poor fit] | –
32 | C/C(=N\NC(N)=O)C1(C)CCCCC1 | – | inactive: 9.46%
33 | Cc1ccc(C)c(OCc2cc(C(=O)N(C)Cc3nccn3C)no2)c1 | inconclusive: 35.5 µM [inhibitor, partial curve] | –
34 | Cc1cc(C)n(-c2ccc(Oc3ccccc3)c(S(=O)(=O)O)c2)n1 | – | inactive: -33.8%
35 | CC1CC(C)CN(c2cc(N(C)CCO)c([N+](=O)[O-])c3nonc23)C1 (stereo not drawn) | inconclusive: 70.8 µM [inhibitor, single point] | –
36 | N#Cc1c(-c2ccco2)nc(SCC(=O)Nc2cccc(Cl)c2)[nH]c1=O | – | inactive: -12.3%
37 | O=C(CCn1cnc(-c2ccccc2)c1-c1ccccc1)N/N=C/c1ccc(O)cc1 | inconclusive: 44.7 µM [inhibitor, partial curve] | –
38 | O=C(Nc1ccccc1C(=O)O)c1cccc(NS(=O)(=O)c2ccc(Br)cc2)c1 | – | inactive: -2.56%
39 | Cc1ccccc1CN1CCN(S(=O)(=O)c2cccc3nsnc23)CC1 | inconclusive: 35.5 µM [inhibitor, partial curve] | –
40 | O=C(O)c1cc(N/N=C/c2ccc(N3CCOCC3)cc2)ccc1Cl | inconclusive: 79.4 µM [inhibitor, single point] | –
41 | CC(NCc1ccccc1O)c1ccccc1 (stereo not drawn) | – | inactive: -0.444%
42 | C/C(=N/N=C/c1ccc(N(C)C)cc1)c1ccccc1 | inconclusive: 25.1 µM [inhibitor, full curve] | –
43 | O=[N+]([O-])c1ccc2c(c1)C(N1CCOCC1)/C(=C/COc1ccc3ccccc3c1Br)O2 (stereo not drawn) | inconclusive: 44.7 µM [inhibitor, partial curve] | –
44 | CCN(CC)Cc1cc(NC2=NS(=O)(=O)c3ccccc32)ccc1OC(=O)C(C)C | – | inactive: 1.76%
45 | COc1cccc(/C=C/C(=O)c2ccc3c(c2)OCCO3)c1OC | – | inactive: -25.1%
46 | Cc1cc(C)cc(NC(=O)CN2CCC(NC(=O)c3cccc(F)c3)CC2)c1 | – | inactive: -1.5%
47 | CCOc1cccc(-c2nn3c(-c4ccccn4)nnc3s2)c1 | active: 50.1 µM | –
48 | CC(=O)Nc1ccc(OCC(O)CN2CCN(S(=O)(=O)c3ccc(NC(C)=O)cc3)CC2)cc1 (stereo not drawn) | inconclusive: 7.08 µM [inhibitor, single point] | –
